From the supplement of paper PMC3334620
In all, about 33,000 sequences were measured (“E-score (-0.5 to 0.5)”: median about -0.017, highest 2% from about 0.3 on). The list shows a part of the results.

Target: T1, Sut1 (UniProt P53032)
T1 sequence: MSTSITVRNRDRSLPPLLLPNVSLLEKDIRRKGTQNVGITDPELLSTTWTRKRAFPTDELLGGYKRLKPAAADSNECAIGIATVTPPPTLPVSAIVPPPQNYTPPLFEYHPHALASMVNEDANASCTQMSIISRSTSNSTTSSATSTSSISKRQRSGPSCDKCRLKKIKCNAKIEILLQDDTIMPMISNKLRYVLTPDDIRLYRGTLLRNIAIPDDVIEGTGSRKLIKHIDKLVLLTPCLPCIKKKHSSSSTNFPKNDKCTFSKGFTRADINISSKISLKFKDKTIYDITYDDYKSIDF
Test: PBM E-score (8-mer binding enrichment) (E-score (-0.5 to 0.5)); higher = stronger / more preferred TF binding; most listed sequences are background and not binding sites
Conditions: protein concentration: 200 nM; construct: GST-full length
Protocol: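 Universal 'all 10-mer' protein binding microarrays (Agilent AMADID 015681) probed with GST-tagged S. cerevisiae TFs (full-length or DBD) made by in vitro transcription/translation (PURExpress), about 100-200 nM. Bound TF was detected with fluorescent anti-GST. Each ungapped 8-mer (which stands for itself and its reverse complement) is scored by the PBM enrichment score (E-score), a modified Wilcoxon-Mann-Whitney statistic from -0.5 to +0.5, computed with the Universal PBM Analysis Suite. Scale: above 0.35 generally sequence-specific binding.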

| Sequence | PBM E-score |
| --- | --- |
| GTGCTCTA | -0.0204 |
| AGATAACA | 0.16 |
| CATAGAAC | -0.203 |
| CGTGCATC | -0.179 |
| AGTAAAAC | 0.13 |
| ACTGCCGC | -0.0183 |
| ATCGTAAG | 0.0975 |
| CCCGCGAA | -0.0481 |
| GAAGATCC | -0.0385 |
| CGGAGCTC | 0.414 |
| CTTCCAAA | 0.183 |
| GGACATAC | 0.0719 |
| ACTTAGAT | 0.111 |
| CCTTTTAC | 0.0886 |
| AACAAATG | 0.159 |
| TCAGGCAA | -0.0892 |
| ATGCAGAC | -0.221 |
| CCCATGAA | 0.015 |
| AAAGCAAG | 0.14 |
| GCTTAAGA | 0.00411 |
| AAGATTCG | 0.263 |
| AGTGATAA | 0.0533 |
| AGCTAACG | -0.0565 |
| CCGCTCGC | -0.0198 |
| CGTTTGCA | 0.0681 |

| Sequence | PBM E-score |
| --- | --- |
| CAATGCTA | 0.0355 |
| CTGTCGAA | -0.12 |
| AGGCCAAA | -0.00857 |
| CAAGGAAC | 0.00117 |
| CTGTTACA | -0.161 |
| CCTCGCTA | -0.282 |
| GCAGGACA | -0.0419 |
| AAATAAGA | 0.125 |
| ACCCGTTA | 0.00856 |
| ATATAAGA | 0.293 |
| AAGCGCTG | -0.105 |
| CTCAAGGA | 0.0239 |
| AAGACCTC | -0.241 |
| ACCCATAG | -0.167 |
| TCAGCCGA | 0.202 |
| CCATAGCA | -0.11 |
| CGCCACAC | -0.145 |
| ACCTCGTA | 0.021 |
| ATAAAACA | 0.118 |
| TAGGGGCA | -0.264 |
| CATACTCA | -0.0521 |
| GCTCTTCA | -0.104 |
| CTTTAAAC | 0.105 |
| CGGATGAA | 0.237 |
| AGTCGGGA | -0.124 |

| Sequence | PBM E-score |
| --- | --- |
| AACCCGGC | -0.108 |
| GACTGCGC | -0.133 |
| ATCCATCG | 0.04 |
| ATGTAGAG | 0.0102 |
| CAAAATTG | 0.0231 |
| CACAATGA | 0.032 |
| CCCTCTAG | -0.151 |
| AGTCTGCA | -0.215 |
| CAGCAGCA | -0.108 |
| ATCATATG | 0.125 |
| AAGTCTGG | -0.258 |
| GACTCGCA | -0.0641 |
| GATAACGA | 0.231 |
| ATGCTGCG | -0.181 |
| CTCAAACC | 0.0169 |
| AATGGCGG | -0.00582 |
| AATCGGTC | 0.0679 |
| GTACAGAC | -0.0712 |
| ACTAGTTG | 0.006 |
| CGAGGGAG | -0.136 |
| CCATCTTA | -0.0249 |
| CACAGTAG | -0.14 |
| CCGATACA | 0.0258 |
| CCCTCTGC | -0.307 |
| GAACTTAA | 0.11 |

| Sequence | PBM E-score |
| --- | --- |
| TTAACGAA | 0.139 |
| AGGCACGC | -0.0142 |
| GTATGACA | 0.0746 |
| ATGAGAGC | -0.152 |
| ATCATTGA | 0.239 |
| CTTCCGCC | -0.0457 |
| GTAACATA | 0.012 |
| CCACTATC | 0.0221 |
| GTTTGCTA | 0.13 |
| CAGTTTCA | -0.0612 |
| CGTCTATC | -0.00556 |
| CGAACTAG | 0.0397 |
| CTTGTAGA | -0.151 |
| GTACCCAC | -0.0135 |
| CATAGTAC | 0.0294 |
| GGTTCCGA | 0.161 |
| GAACCCTC | -0.17 |
| ATCCGAAG | 0.101 |
| TTCCGCAA | 0.166 |
| AGGCGCAA | 0.106 |
| ATATCCCG | 0.0307 |
| AGACCGCC | -0.118 |
| ATCACCAA | 0.0304 |
| CCCGGACG | -0.12 |
| ATCCCACC | -0.0109 |

| Sequence | PBM E-score |
| --- | --- |
| CCCAGAGG | -0.236 |
| CGCATTTA | 0.243 |
| CGGTGGGC | -0.0785 |
| CAACCTTG | -0.0181 |
| TTGCGCAA | 0.0974 |
| TAGGCGGA | 0.255 |
| AGCAGTGC | -0.233 |
| ACATCGAC | -0.138 |
| TAGGGTCA | -0.235 |
| AATTTACT | 0.282 |
| CTCAGATA | 0.0396 |
| AACTTCGA | -0.017 |
| CAGGCGCA | -0.0986 |
| AAGTATGT | 0.12 |
| CTTATTGC | -0.121 |
| AATAACAT | 0.244 |
| AGAACGTG | -0.0282 |
| GATTAGCC | -0.0982 |
| CAATGCCG | 0.124 |
| AAATACGG | 0.201 |
| TATTCTCA | 0.0471 |
| CTTCGACC | -0.0354 |
| AATTTGCC | -0.00501 |
| ATACCAAT | 0.14 |
| TCTTCGAA | -0.0726 |

| Sequence | PBM E-score |
| --- | --- |
| CTAAGAAC | 0.121 |
| ATAAGAAC | 0.286 |
| CACATGAA | -0.0713 |
| ACGAGTAG | 0.0791 |
| CAGCACGG | -0.0137 |
| ATCAGCGG | -0.0118 |
| AACTTATA | 0.31 |
| CCCTAGTC | -0.238 |
| AGGCTCTC | -0.148 |
| CTGACGCA | -0.265 |
| GAAGGCTC | 0.0205 |
| CCACCGTA | -0.097 |
| CCGTGACC | -0.106 |
| CTGTGCAA | -0.217 |
| GCAGTGAA | 0.172 |
| AACGGTGT | -0.149 |
| CACACATA | 0.0589 |
| CAGTACTC | 0.051 |
| TACGTCAA | -0.0371 |
| CCTGAGCG | -0.381 |
| AACTAATG | 0.241 |
| AACCCAGA | -0.012 |
| ATTCCTTA | 0.0361 |
| ACCATTAA | 0.252 |
| ACGGTAAT | -0.0094 |

| Sequence | PBM E-score |
| --- | --- |
| AGTGATTC | 0.0201 |
| ACATCAGA | 0.0242 |
| GATGCATC | 0.076 |
| AAAGGCCC | -0.0192 |
| AGCATTCA | -0.137 |
| ATCCATAA | 0.137 |
| GTCCCAAC | -0.138 |
| GACTAATC | 0.0321 |
| GGTCACAA | -0.161 |
| GTAGAGTA | 0.072 |
| CAAGGTGC | -0.0931 |
| ACTAATTC | 0.215 |
| CAGTGAAG | -0.137 |
| CCCCTGGC | -0.366 |
| CGAGATGA | -0.0261 |
| AACCTGGC | -0.0981 |
| ATCTTGGG | -0.174 |
| AGTCTAAC | -0.0149 |
| AAACGCCG | 0.0637 |
| GAGAGGGC | -0.334 |
| ACCTCTGA | -0.0851 |
| ACCGAATG | -0.044 |
